According to ChEMBL document CHEMBL4888484, “Replenishing the malaria drug discovery pipeline: Screening and hit evaluation of the MMV Hit Generation Library 1 (HGL1) against asexual blood stage Plasmodium falciparum ,using a nano luciferase reporter read-out” (2022):
In all, about 150,000 compounds went through this assay and about 540 (0.36%) showed an effect of 50% or more. The list shows a part of the results.

Test system: Plasmodium falciparum
Test: Primary screen in NF54 nanoGlo assay, in single point, at 2uM, 72h; a lower Z score goes with more inhibition
Format: functional, Erythrocyte
Details: timepoint 72 hour

Structure (SMILES)	% Inhibition [%]	Z score
O=C(Nc1ccc(Cl)cn1)c1cccc(C(=O)Nc2ccc(Cl)cn2)n1	-13	1.54
CCNc1cc(CNc2ncncc2Cl)ccn1	-3	0.5
Cc1cccc(CN2N=C(C(=O)N3CCCCC3)S(=O)(=O)c3ccc(C)cc32)c1	-3	0.32
CCCn1ncc(C(=O)N2C[C@H]3CC[C@@H](C2)N(CCOC)C3)c1C	-8	1.08
C[C@@H](NCc1ccc2c(c1)COC(C)(C)O2)c1cccc(O)c1	-21	2.42
Cc1nc(-c2ccncc2)nc(NCCS(C)(=O)=O)c1C	-1	0.15
COCCCN(CC(=O)N(CCc1c[nH]c2ccccc12)Cc1ccc(Cl)cc1)C(=O)Nc1ccccc1	-3	0.49
CCc1cnc(CCNS(=O)(=O)N2CC(C)CC(C)C2)s1 (stereo not given)	-1	0.25
Cc1ccc(C)c(CNC2(c3nc(C(C)C)no3)CCOCC2)c1	3	-0.35
CCN1CCC(CC(=O)N(C)[C@@H](C)c2ccon2)CC1	-5	0.82
COc1ccc(S(=O)(=O)N(C)Cc2nnc(-c3ccc(Cl)cc3)o2)cc1	1	-0.11
COCCN(CC1CN(CC(O)CN2CCOCC2)CCO1)C(=O)c1ccccc1F (stereo not given)	-19	2.39
Cc1ccc2c3c(cnc2c1C)C(=O)NCCN3	11	-1.4
O=C(NCCc1nc2cc(F)ccc2s1)Nc1nncs1	-4	0.47
CCCN1C=NS(=O)(=O)c2cc(C(=O)Nc3ccccc3CC)ccc21	-3	0.54
O=C(NC1CC1)N[C@H]1CCN(C(=O)C(C2CCC2)C2CCC2)C1	32	-1.68
CC(C)CCn1c(C(=O)Nc2ccccc2)cc2cc(NC(=O)c3ccco3)ccc21	-8	1.11
Cn1cnn(CC(=O)N(c2ccsc2)C2CCCCC2)c1=O	10	-1.12
CC(C)N1CCC(N2CCN(CC#Cc3ccccc3)C[C@@H]2CCO)CC1	-16	3.2
COCCOc1ncccc1NC1CCC1	3	-0.31
c1ccc2[nH]c(CNc3nc(-c4ccncc4)nc4c3CCNCC4)cc2c1	-7	1.42
O=C(Nc1c(F)cccc1F)N1CCn2nc(C3CC3)cc2C1	-21	2.36
CC[C@]1(O)CCOC2(CCN(C(=O)CC3CC3)CC2)C1	-8	1.34
CCn1cc(CN2CCCC[C@@H]2CCN(C)C)cc1C#N	1	-0.2
Cc1cc(CNC(=O)c2sc(C)nc2C)ncn1	20	-2.62
O=S1(=O)CC[C@H](NC2CC=CC2)c2cc(Cl)ccc21	-7	1.02
Cc1ccc(CNC(=O)N[C@@H](CC(C)C)C(=O)O)cc1	-10	1.23
CS(=O)(=O)N1CCC[C@H](C(=O)Nc2cccc(OC(F)(F)F)c2)CCNC(=O)CC1	-6	0.74

Structure (SMILES)	% Inhibition [%]	Z score
O=C(c1cc2occc2c(Nc2ccc(F)cc2)n1)N1CCN(C2CCCCC2)CC1	-14	1.42
O=C(Nc1ccc(N2CCN(C3CCCCC3)C2=O)nc1)c1cccs1	8	-0.88
O=C(OCCOc1ccccc1F)[C@H]1CCc2cn[nH]c2C1	-10	1.06
CS(=O)(=O)[C@H]1CCCN(c2cccnc2C#N)CC1	-5	0.93
CC(C)c1nsc(NC23CCC2CN(C(=O)CN2CCCC2=O)C3)n1 (stereo not given)	0	0.03
O=C1c2ccccc2C(=O)N1CN1CCOCC1	3	-0.46
CC[C@H]1CN(C(=O)c2c(C)ncn2C)CCN1C	-2	0.27
CCN(Cc1c(C)nn(C)c1Cl)C1CCCCC1	-6	0.8
Cc1n[nH]c(=O)c2cc(S(=O)(=O)Nc3ccc(Cl)cc3)cn12	-5	0.6
CC(C)(C)OC(=O)NCc1cccc(-n2ccnc2)c1	-6	0.65
CCC(C)N(CC(=O)N(Cc1ccco1)CC1CCCO1)S(=O)(=O)c1ccccc1 (stereo not given)	-7	1
CCc1ccc2c(c1)N=C(c1ccc(F)cc1)N=C(c1ccncc1)N2	-9	1.03
COc1ccc(S(=O)(=O)N2CCOCC2)cc1NC(=O)Cc1ccc(Cl)c(Cl)c1	-10	1.55
O=C(c1cc(F)ccc1F)N1CCN(CCO)[C@@H]2CS(=O)(=O)C[C@@H]21	4	-0.64
O=C(NC1CCCCCC1)c1cnn2c(-c3ccc(Cl)cc3)ccnc12	33	-3.73
CC(=O)NC[C@@H]1CN(C(=O)c2ccc3cc(C)ccc3n2)C[C@H]1c1cncn1C	-12	1.81
COc1cc(C2CN(C(=O)c3ccc(Cl)cc3)CC2C(=O)N2CCCC2)cc(OC)c1OC (stereo not given)	3	-0.51
Cc1ccc2nc(C(F)(F)F)n(N3C(=O)C4CC4C3=O)c(=O)c2c1 (stereo not given)	-5	0.59
CC(C)OCCN1CCC(c2cnn(C)c2)CC1	-6	0.86
O=C(N1CCNCC1)N(c1ccccc1)c1ccccc1	-11	1.22
COC(=O)[C@@H](NC(=O)c1ccc(C)nc1)C(C)(C)C	-8	1.21
Fc1ccccc1CNCc1cc2ccc(Cl)cc2nc1N1CCOCC1	-11	1.28
Cc1ccccc1C(=O)N(Cc1ccc(F)cc1)c1cccc(CC(=O)N2CCCC2)c1	2	-0.27
Cc1nc(O)c2c(n1)CN(Cc1ccc3cn[nH]c3c1)C2	-1	0.26
CCN(CC)Cc1c(N)c(C#N)c2ccccn12	-32	3.74
Cc1ccc(C(=O)N2CC[C@H](n3c(C)cnc3C3CC3)C2)cn1	-12	1.55
COc1ccc(N2C[C@@H](NC(=O)c3cnc(N(C)C)nc3C)CC2=O)cc1	5	-0.86
